{"source": "the supplement of paper PMC12230231", "note": "± gives the standard deviation of the averaged measurements. Restriction of a single-cycle SIVsab GFP reporter by TRIM5α v1-loop variants in CRFK cells. Human variants: read share among cells still uninfected after two challenges over input, higher = gained restriction. Rhesus variants: share among infected cells over input, higher = lost restriction. Reporter dose not given per row. No active / inactive call per row; the paper calls a change when both replicates lie above its controls (mean + 2 SD of stop or wild-type variants, or the top frameshift score). Residues outside the varied loop are taken from Swiss-Prot. The paper reads the human single-substitution scores as noise; they and the rhesus combinations repeat poorly (rank correlation 0.3 to 0.4), indel scores repeat only for the top variants, rhesus substitutions well (0.9)."}
{"tested_on": "SIVsab (simian immunodeficiency virus of sabaeus monkeys), single-cycle GFP reporter, in CRFK cells", "assay": "enrichment among infected cells over input (fold); higher = weaker restriction", "conditions": "library: human / rhesus combinations", "procedure": "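Pools of CRFK cells expressing variants of the TRIM5α v1 loop were challenged with the single-cycle reporter, sorted by GFP and sequenced; mean of two replicates.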"}
{"sequence": "MASGILLNVKEEVTCPICLELLTEPLSLHCGHSFCQACITANHKKSMLYKEGERSCPVCRISYQPENIQPNRHVANIVEKLREVKLSPEEGQKVDHCARHGEKLLLFCQEDSKVICWLCERSQEHRGHHTFLMEEVAQEYHVKLQTALEMLRQKQQEAEKLEADIREEKASWKIQIDYDKTNVSADFEQLREILDWEESNELQNLEKEEEDILKSLTKSETEMVQQTQYMRELISELEHRLQGSMMDLLQGVDGIIKRIENMTLKKPKTFHKNQRRVFRAPDLKGMLDMFRELTDARRYWVDVTLAPNNISHAVIAEDKRQVSSRNPQIMYGAPGTRYTFPTLTNFNYCTGVLGSQSITSGKHYWEVDVSKKSAWILGVCAGFQSDAMYNIEQNENYQPKYGYWVIGLQEGVKYSVFQDGSSHTPFAPFIVPLSVIICPDRVGVFVDYEACTVSFFNITNHGFLIYKFSQCSFSKPVFPYLNPRKCTVPMTLCSPSS [rhesus TRIM5α, 332-344 = GAPGTRYTFPTLT]", "enrichment": "0.607 ± 0.23"}
{"sequence": "MASGILLNVKEEVTCPICLELLTEPLSLHCGHSFCQACITANHKKSMLYKEGERSCPVCRISYQPENIQPNRHVANIVEKLREVKLSPEEGQKVDHCARHGEKLLLFCQEDSKVICWLCERSQEHRGHHTFLMEEVAQEYHVKLQTALEMLRQKQQEAEKLEADIREEKASWKIQIDYDKTNVSADFEQLREILDWEESNELQNLEKEEEDILKSLTKSETEMVQQTQYMRELISELEHRLQGSMMDLLQGVDGIIKRIENMTLKKPKTFHKNQRRVFRAPDLKGMLDMFRELTDARRYWVDVTLAPNNISHAVIAEDKRQVSSRNPQIMYQARGTLYTFQTFTNFNYCTGVLGSQSITSGKHYWEVDVSKKSAWILGVCAGFQSDAMYNIEQNENYQPKYGYWVIGLQEGVKYSVFQDGSSHTPFAPFIVPLSVIICPDRVGVFVDYEACTVSFFNITNHGFLIYKFSQCSFSKPVFPYLNPRKCTVPMTLCSPSS [rhesus TRIM5α, 332-344 = QARGTLYTFQTFT]", "enrichment": "1.58 ± 0.81"}
{"sequence": "MASGILLNVKEEVTCPICLELLTEPLSLHCGHSFCQACITANHKKSMLYKEGERSCPVCRISYQPENIQPNRHVANIVEKLREVKLSPEEGQKVDHCARHGEKLLLFCQEDSKVICWLCERSQEHRGHHTFLMEEVAQEYHVKLQTALEMLRQKQQEAEKLEADIREEKASWKIQIDYDKTNVSADFEQLREILDWEESNELQNLEKEEEDILKSLTKSETEMVQQTQYMRELISELEHRLQGSMMDLLQGVDGIIKRIENMTLKKPKTFHKNQRRVFRAPDLKGMLDMFRELTDARRYWVDVTLAPNNISHAVIAEDKRQVSSRNPQIMYGARGTRYTFPSLVNFNYCTGVLGSQSITSGKHYWEVDVSKKSAWILGVCAGFQSDAMYNIEQNENYQPKYGYWVIGLQEGVKYSVFQDGSSHTPFAPFIVPLSVIICPDRVGVFVDYEACTVSFFNITNHGFLIYKFSQCSFSKPVFPYLNPRKCTVPMTLCSPSS [rhesus TRIM5α, 332-344 = GARGTRYTFPSLV]", "enrichment": "1.62 ± 1.2"}
{"sequence": "MASGILLNVKEEVTCPICLELLTEPLSLHCGHSFCQACITANHKKSMLYKEGERSCPVCRISYQPENIQPNRHVANIVEKLREVKLSPEEGQKVDHCARHGEKLLLFCQEDSKVICWLCERSQEHRGHHTFLMEEVAQEYHVKLQTALEMLRQKQQEAEKLEADIREEKASWKIQIDYDKTNVSADFEQLREILDWEESNELQNLEKEEEDILKSLTKSETEMVQQTQYMRELISELEHRLQGSMMDLLQGVDGIIKRIENMTLKKPKTFHKNQRRVFRAPDLKGMLDMFRELTDARRYWVDVTLAPNNISHAVIAEDKRQVSSRNPQIMYGARGTRFQSLTNFNYCTGVLGSQSITSGKHYWEVDVSKKSAWILGVCAGFQSDAMYNIEQNENYQPKYGYWVIGLQEGVKYSVFQDGSSHTPFAPFIVPLSVIICPDRVGVFVDYEACTVSFFNITNHGFLIYKFSQCSFSKPVFPYLNPRKCTVPMTLCSPSS [rhesus TRIM5α, 332-344 = GARGTRFQSLT]", "enrichment": "1.34 ± 0.36"}
{"sequence": "MASGILLNVKEEVTCPICLELLTEPLSLHCGHSFCQACITANHKKSMLYKEGERSCPVCRISYQPENIQPNRHVANIVEKLREVKLSPEEGQKVDHCARHGEKLLLFCQEDSKVICWLCERSQEHRGHHTFLMEEVAQEYHVKLQTALEMLRQKQQEAEKLEADIREEKASWKIQIDYDKTNVSADFEQLREILDWEESNELQNLEKEEEDILKSLTKSETEMVQQTQYMRELISELEHRLQGSMMDLLQGVDGIIKRIENMTLKKPKTFHKNQRRVFRAPDLKGMLDMFRELTDARRYWVDVTLAPNNISHAVIAEDKRQVSSRNPQIMYQAPGTRYTFPTFTNFNYCTGVLGSQSITSGKHYWEVDVSKKSAWILGVCAGFQSDAMYNIEQNENYQPKYGYWVIGLQEGVKYSVFQDGSSHTPFAPFIVPLSVIICPDRVGVFVDYEACTVSFFNITNHGFLIYKFSQCSFSKPVFPYLNPRKCTVPMTLCSPSS [rhesus TRIM5α, 332-344 = QAPGTRYTFPTFT]", "enrichment": "0.766 ± 0.2"}
{"sequence": "MASGILLNVKEEVTCPICLELLTEPLSLHCGHSFCQACITANHKKSMLYKEGERSCPVCRISYQPENIQPNRHVANIVEKLREVKLSPEEGQKVDHCARHGEKLLLFCQEDSKVICWLCERSQEHRGHHTFLMEEVAQEYHVKLQTALEMLRQKQQEAEKLEADIREEKASWKIQIDYDKTNVSADFEQLREILDWEESNELQNLEKEEEDILKSLTKSETEMVQQTQYMRELISELEHRLQGSMMDLLQGVDGIIKRIENMTLKKPKTFHKNQRRVFRAPDLKGMLDMFRELTDARRYWVDVTLAPNNISHAVIAEDKRQVSSRNPQIMYGARGTLFTFPTFTNFNYCTGVLGSQSITSGKHYWEVDVSKKSAWILGVCAGFQSDAMYNIEQNENYQPKYGYWVIGLQEGVKYSVFQDGSSHTPFAPFIVPLSVIICPDRVGVFVDYEACTVSFFNITNHGFLIYKFSQCSFSKPVFPYLNPRKCTVPMTLCSPSS [rhesus TRIM5α, 332-344 = GARGTLFTFPTFT]", "enrichment": "0.341 ± 0.087"}
{"sequence": "MASGILLNVKEEVTCPICLELLTEPLSLHCGHSFCQACITANHKKSMLYKEGERSCPVCRISYQPENIQPNRHVANIVEKLREVKLSPEEGQKVDHCARHGEKLLLFCQEDSKVICWLCERSQEHRGHHTFLMEEVAQEYHVKLQTALEMLRQKQQEAEKLEADIREEKASWKIQIDYDKTNVSADFEQLREILDWEESNELQNLEKEEEDILKSLTKSETEMVQQTQYMRELISELEHRLQGSMMDLLQGVDGIIKRIENMTLKKPKTFHKNQRRVFRAPDLKGMLDMFRELTDARRYWVDVTLAPNNISHAVIAEDKRQVSSRNPQIMYGAPGTLYTFQSLVNFNYCTGVLGSQSITSGKHYWEVDVSKKSAWILGVCAGFQSDAMYNIEQNENYQPKYGYWVIGLQEGVKYSVFQDGSSHTPFAPFIVPLSVIICPDRVGVFVDYEACTVSFFNITNHGFLIYKFSQCSFSKPVFPYLNPRKCTVPMTLCSPSS [rhesus TRIM5α, 332-344 = GAPGTLYTFQSLV]", "enrichment": "1.14 ± 0.19"}
{"sequence": "MASGILLNVKEEVTCPICLELLTEPLSLHCGHSFCQACITANHKKSMLYKEGERSCPVCRISYQPENIQPNRHVANIVEKLREVKLSPEEGQKVDHCARHGEKLLLFCQEDSKVICWLCERSQEHRGHHTFLMEEVAQEYHVKLQTALEMLRQKQQEAEKLEADIREEKASWKIQIDYDKTNVSADFEQLREILDWEESNELQNLEKEEEDILKSLTKSETEMVQQTQYMRELISELEHRLQGSMMDLLQGVDGIIKRIENMTLKKPKTFHKNQRRVFRAPDLKGMLDMFRELTDARRYWVDVTLAPNNISHAVIAEDKRQVSSRNPQIMYQAPGTRYTFPTLVNFNYCTGVLGSQSITSGKHYWEVDVSKKSAWILGVCAGFQSDAMYNIEQNENYQPKYGYWVIGLQEGVKYSVFQDGSSHTPFAPFIVPLSVIICPDRVGVFVDYEACTVSFFNITNHGFLIYKFSQCSFSKPVFPYLNPRKCTVPMTLCSPSS [rhesus TRIM5α, 332-344 = QAPGTRYTFPTLV]", "enrichment": "4.62 ± 3.5"}
{"sequence": "MASGILLNVKEEVTCPICLELLTEPLSLHCGHSFCQACITANHKKSMLYKEGERSCPVCRISYQPENIQPNRHVANIVEKLREVKLSPEEGQKVDHCARHGEKLLLFCQEDSKVICWLCERSQEHRGHHTFLMEEVAQEYHVKLQTALEMLRQKQQEAEKLEADIREEKASWKIQIDYDKTNVSADFEQLREILDWEESNELQNLEKEEEDILKSLTKSETEMVQQTQYMRELISELEHRLQGSMMDLLQGVDGIIKRIENMTLKKPKTFHKNQRRVFRAPDLKGMLDMFRELTDARRYWVDVTLAPNNISHAVIAEDKRQVSSRNPQIMYGAPGTRYQSFTNFNYCTGVLGSQSITSGKHYWEVDVSKKSAWILGVCAGFQSDAMYNIEQNENYQPKYGYWVIGLQEGVKYSVFQDGSSHTPFAPFIVPLSVIICPDRVGVFVDYEACTVSFFNITNHGFLIYKFSQCSFSKPVFPYLNPRKCTVPMTLCSPSS [rhesus TRIM5α, 332-344 = GAPGTRYQSFT]", "enrichment": "1.45 ± 1.5"}
{"sequence": "MASGILLNVKEEVTCPICLELLTEPLSLHCGHSFCQACITANHKKSMLYKEGERSCPVCRISYQPENIQPNRHVANIVEKLREVKLSPEEGQKVDHCARHGEKLLLFCQEDSKVICWLCERSQEHRGHHTFLMEEVAQEYHVKLQTALEMLRQKQQEAEKLEADIREEKASWKIQIDYDKTNVSADFEQLREILDWEESNELQNLEKEEEDILKSLTKSETEMVQQTQYMRELISELEHRLQGSMMDLLQGVDGIIKRIENMTLKKPKTFHKNQRRVFRAPDLKGMLDMFRELTDARRYWVDVTLAPNNISHAVIAEDKRQVSSRNPQIMYQARGTLYTFQTLVNFNYCTGVLGSQSITSGKHYWEVDVSKKSAWILGVCAGFQSDAMYNIEQNENYQPKYGYWVIGLQEGVKYSVFQDGSSHTPFAPFIVPLSVIICPDRVGVFVDYEACTVSFFNITNHGFLIYKFSQCSFSKPVFPYLNPRKCTVPMTLCSPSS [rhesus TRIM5α, 332-344 = QARGTLYTFQTLV]", "enrichment": "0.849 ± 0.058"}
{"sequence": "MASGILLNVKEEVTCPICLELLTEPLSLHCGHSFCQACITANHKKSMLYKEGERSCPVCRISYQPENIQPNRHVANIVEKLREVKLSPEEGQKVDHCARHGEKLLLFCQEDSKVICWLCERSQEHRGHHTFLMEEVAQEYHVKLQTALEMLRQKQQEAEKLEADIREEKASWKIQIDYDKTNVSADFEQLREILDWEESNELQNLEKEEEDILKSLTKSETEMVQQTQYMRELISELEHRLQGSMMDLLQGVDGIIKRIENMTLKKPKTFHKNQRRVFRAPDLKGMLDMFRELTDARRYWVDVTLAPNNISHAVIAEDKRQVSSRNPQIMYQAPGTRYTFQSFVNFNYCTGVLGSQSITSGKHYWEVDVSKKSAWILGVCAGFQSDAMYNIEQNENYQPKYGYWVIGLQEGVKYSVFQDGSSHTPFAPFIVPLSVIICPDRVGVFVDYEACTVSFFNITNHGFLIYKFSQCSFSKPVFPYLNPRKCTVPMTLCSPSS [rhesus TRIM5α, 332-344 = QAPGTRYTFQSFV]", "enrichment": "1.42 ± 0.59"}
{"sequence": "MASGILLNVKEEVTCPICLELLTEPLSLHCGHSFCQACITANHKKSMLYKEGERSCPVCRISYQPENIQPNRHVANIVEKLREVKLSPEEGQKVDHCARHGEKLLLFCQEDSKVICWLCERSQEHRGHHTFLMEEVAQEYHVKLQTALEMLRQKQQEAEKLEADIREEKASWKIQIDYDKTNVSADFEQLREILDWEESNELQNLEKEEEDILKSLTKSETEMVQQTQYMRELISELEHRLQGSMMDLLQGVDGIIKRIENMTLKKPKTFHKNQRRVFRAPDLKGMLDMFRELTDARRYWVDVTLAPNNISHAVIAEDKRQVSSRNPQIMYQARGTRYTFPTLVNFNYCTGVLGSQSITSGKHYWEVDVSKKSAWILGVCAGFQSDAMYNIEQNENYQPKYGYWVIGLQEGVKYSVFQDGSSHTPFAPFIVPLSVIICPDRVGVFVDYEACTVSFFNITNHGFLIYKFSQCSFSKPVFPYLNPRKCTVPMTLCSPSS [rhesus TRIM5α, 332-344 = QARGTRYTFPTLV]", "enrichment": "1.09 ± 1"}
